In publication PMC4336329 (PLoS ONE, 2015):
The whole screen tested about 310,000 compounds, of which about 14,000 (4.5%) showed an effect of 50% or more. The effect is printed as a negative number. The list shows a part of the results.

Target: human ether-à-go-go-related gene (hERG) potassium channel (human, UniProt Q12809)
Experiment: primary screen, population patch clamp on CHO cells stably expressing hERG
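Also: peak tail current of the secondary pulse compared with the same well before compound.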

Sequence of human ether-à-go-go-related gene (hERG) potassium channel (Q12809 whole entry, looked up): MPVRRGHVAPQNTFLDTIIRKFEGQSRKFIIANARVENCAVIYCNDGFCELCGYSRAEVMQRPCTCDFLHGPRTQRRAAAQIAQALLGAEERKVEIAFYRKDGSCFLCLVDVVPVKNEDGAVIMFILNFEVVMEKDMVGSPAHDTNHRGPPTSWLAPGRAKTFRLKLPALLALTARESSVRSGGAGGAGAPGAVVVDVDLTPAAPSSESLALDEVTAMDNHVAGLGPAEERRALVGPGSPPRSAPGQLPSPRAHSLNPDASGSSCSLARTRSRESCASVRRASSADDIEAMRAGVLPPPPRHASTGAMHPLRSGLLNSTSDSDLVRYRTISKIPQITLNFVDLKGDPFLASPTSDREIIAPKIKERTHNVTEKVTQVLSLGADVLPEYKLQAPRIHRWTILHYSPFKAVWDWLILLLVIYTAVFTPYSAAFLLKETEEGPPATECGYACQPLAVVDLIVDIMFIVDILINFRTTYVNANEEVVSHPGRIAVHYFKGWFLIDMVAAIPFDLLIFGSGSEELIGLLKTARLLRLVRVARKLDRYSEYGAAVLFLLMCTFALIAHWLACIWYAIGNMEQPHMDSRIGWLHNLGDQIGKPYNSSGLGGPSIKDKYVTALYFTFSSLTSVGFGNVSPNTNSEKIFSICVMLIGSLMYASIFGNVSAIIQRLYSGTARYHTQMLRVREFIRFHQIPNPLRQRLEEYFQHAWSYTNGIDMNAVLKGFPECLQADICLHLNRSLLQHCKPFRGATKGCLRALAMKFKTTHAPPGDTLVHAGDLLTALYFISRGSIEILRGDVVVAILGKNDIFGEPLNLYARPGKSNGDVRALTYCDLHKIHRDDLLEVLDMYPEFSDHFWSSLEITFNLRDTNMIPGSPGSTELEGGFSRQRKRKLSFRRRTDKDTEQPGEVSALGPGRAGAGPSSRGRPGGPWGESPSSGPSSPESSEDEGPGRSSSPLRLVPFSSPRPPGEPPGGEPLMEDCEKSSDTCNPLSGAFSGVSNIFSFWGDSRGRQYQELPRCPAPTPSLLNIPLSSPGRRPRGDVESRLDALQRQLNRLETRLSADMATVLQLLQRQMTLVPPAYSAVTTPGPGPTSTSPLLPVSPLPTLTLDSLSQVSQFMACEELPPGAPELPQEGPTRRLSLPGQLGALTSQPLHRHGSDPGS

SMILES	hERG current change (%, negative = inhibition) at 10uM [%]
COC(=O)c1c(C)n(Cc2ccc3c(c2)OCO3)c2ccc(O)cc12	2.82
CCC(=O)c1ccc(OCCSc2ncccn2)cc1	-27.4
COc1ccc(NC(=O)CN2C(=O)CSC(C)C2=O)c(OC)c1 (stereo not drawn)	-3.11
Cc1cc(C(=O)COc2ccccc2Cl)c(C)n1-c1ccc2c(c1)OCO2	19.5
Cc1ccc(NC(=O)Nc2c(C)n(C)n(-c3ccccc3)c2=O)cc1C	13.1
CCCNC1=C(C)C(=O)C2=C(C1=O)C(COC(N)=O)[C@]1(OC)C3NC3CN21 (stereo partly drawn)	12.9
COc1ccc(C(C(=O)NCc2ccccc2)N(Cc2ccc3c(c2)OCO3)C(=O)c2cnccn2)cc1 (stereo not drawn)	-46.8
C=CCCOc1ccccc1C(N)=O	1.88
O=C(CSc1nnc(NC2CCCCC2)s1)Nc1ccc(N2CCOCC2)cc1	0.78
O=C(CSc1nnc2ccc(-c3ccc(F)cc3)nn12)N1CCOCC1	1.7
O=C(/C=C1\NC2(CCCC2)Cc2ccccc21)N1CCOCC1.O=S(=O)(O)O	-0.228
Cc1cc(C)c2cc(CN(CC3CCCO3)S(=O)(=O)c3ccc4c(c3)OCCO4)c(=O)[nH]c2c1 (stereo not drawn)	-14.1
CCN1CCN(C(=S)Nc2ccc(Cl)cc2)CC1	-18
COC(=O)c1c(-c2cccs2)csc1NC(=O)CN1CCOCC1	-46.4
CC(C)(C)[C@@H]1C=C(C(=O)N2CCN(Cc3ccccc3)CC2)O[C@H](OCc2ccc(CO)cc2)C1	-32.8
O=C1NC(=O)C2C1C(c1ccc([N+](=O)[O-])cc1)=NN2Cc1ccccc1 (stereo not drawn)	-0.967
CSc1cccc(NC(=O)c2[nH]c(C)c(C(C)=O)c2C)c1	-29.3
COc1cccc(CNC(=O)C(=O)NCCC2CCCCN2S(=O)(=O)c2cccs2)c1 (stereo not drawn)	-23.6
C=CCN1C(=O)/C(=C/c2ccc(OCC(=O)O)cc2)S/C1=N/c1nccs1	4.77
O=C(NCCCn1ccnc1)C1CCCN(S(=O)(=O)c2ccc(F)cc2)C1 (stereo not drawn)	10.7
CCN(CC)c1ncnc2c1cnn2Cc1ccc(Cl)cc1	-39
CCO[C@@H]1OC(C(N)=O)=C[C@H](C2CC2)[C@H]1CCCO	7.64
O=C(NC(NCCCN1CCOCC1)(C(F)(F)F)C(F)(F)F)C1CCCCC1	13.6
CC(C)c1ccc(NC(=O)CCNS(=O)(=O)c2cc(Br)cnc2N)cc1	2.34
